Our source for the Potency values is PubChem BioAssay AID360 (National Center for Advancing Translational Sciences (NCATS), 2006).

Structures are written as SMILES. Hit rate of the full screen: of about 48,000 compounds, about 550 (1.1%) were called active. Inconclusive results (about 4%) are left out. Cut-off read from the data, not from the text of the source: active = potency below about 15 µM; inconclusive = mostly about 16 µM to 33 µM; inactive = weaker than that. The list shows a part of the results. A value given as a limit tells only on which side of the number the result lay.
Potency is the fitted concentration of half-maximal effect.

Sequence of UniProt P04062 (P04062 whole entry, looked up): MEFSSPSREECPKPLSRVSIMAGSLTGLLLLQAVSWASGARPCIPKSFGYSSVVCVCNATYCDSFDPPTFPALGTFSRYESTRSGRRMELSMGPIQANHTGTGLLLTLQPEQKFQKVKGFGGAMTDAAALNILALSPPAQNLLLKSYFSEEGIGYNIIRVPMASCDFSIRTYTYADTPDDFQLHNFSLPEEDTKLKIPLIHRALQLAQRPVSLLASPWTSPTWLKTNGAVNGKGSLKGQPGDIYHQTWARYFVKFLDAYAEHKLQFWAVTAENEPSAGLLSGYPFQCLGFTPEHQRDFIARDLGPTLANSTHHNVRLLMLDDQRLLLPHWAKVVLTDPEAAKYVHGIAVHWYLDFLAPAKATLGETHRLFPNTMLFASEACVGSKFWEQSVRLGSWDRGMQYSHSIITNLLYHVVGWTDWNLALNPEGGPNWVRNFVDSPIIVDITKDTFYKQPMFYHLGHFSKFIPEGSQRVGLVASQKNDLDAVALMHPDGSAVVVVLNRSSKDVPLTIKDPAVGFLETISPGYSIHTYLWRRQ

This experiment addresses Lysosomal acid glucosylceramidase (Homo sapiens) (UniProt P04062). In words: Glucocerebrosidase.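 Note: the screen sought inhibitors.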 Particulars: purified enzyme, resorufin glucoside fluorescence (screen aimed at inhibitors), 20 min. An outline of the steps:
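Normal human glucocerebrosidase (0.2 nM final) was assayed with resorufin β-D-glucopyranoside (30 uM final) in 50mM citric acid/KH2PO4, 10mM sodium taurocholate, 0.01% tween-20, pH 5.9. Compounds were titrated; fluorescence (Ex 548, Em 600) read after 20 min at RT.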
In the case of `COc1ccccc1N1C(=O)CC(N2CCc3ccccc32)C1=O` (stereo not given), the Potency was inactive: > 76.9 µM.

For `COC(=O)c1ccc(Oc2nc(Nc3ccc(F)cc3)nc(N3CCCC3)n2)cc1`, the Potency was inactive: > 76.9 µM. Turning to `CC(C)n1nc(C(=O)OCC(=O)N(C)C2CCS(=O)(=O)C2)c2ccccc2c1=O` (stereo not given), the Potency was inactive: > 76.9 µM. The same measure for `Cc1cc(C)n(C(=O)CCC2COc3ccccc3O2)n1` (stereo not given): inactive: > 76.9 µM. Regarding `COc1ccc(-c2nnc3sc(-c4ccccn4)nn23)cc1`, the Potency is inactive: > 76.9 µM. For `COc1ccc(C)cc1NC(=O)CSc1nc(SC)ns1`, the Potency is inactive: > 76.9 µM. For `CCn1c(Cc2ccccc2)nnc1SCC(=O)Nc1nc(C)c(C)s1`, the Potency was inactive: > 76.9 µM. `Cn1c(=O)c2c(nc(N3CCCCCC3)n2CC(=O)c2ccccc2)n(C)c1=O`: the Potency is inactive: > 76.9 µM.

Consider `CCOc1ccccc1COC(=O)c1cccc(-n2cnnn2)c1`, for which the Potency was inactive: > 76.9 µM. With `COCC(=O)Nc1ccccc1C(=O)NC(C)C`, the Potency is inactive: > 76.9 µM. Regarding `C#CCOC(=O)c1ccccc1C(=O)OCC#C`, the Potency is inactive: > 76.9 µM. `CC(=O)c1cccc(NC(=O)CSc2nnc(-c3ccc(S(=O)(=O)N4CCCC4)cc3)o2)c1`: the Potency was inactive: > 76.9 µM. The figure for `C=CCNC(=O)CCCCC(=O)NCC=C` is inactive: > 76.9 µM.

With `CN(C)S(=O)(=O)c1cc(C(=O)NCC2CCCO2)c(Cl)cc1Cl` (stereo not given), the Potency is inactive: > 76.9 µM. The same measure for `Cc1ccc2c(c1)NCCO2`: inactive: > 76.9 µM.

For the compound `Cc1nn(C)cc1CNC(=O)Nc1ccc(Br)cc1Cl`, the Potency is inactive: > 76.9 µM. The same measure for `CC1CCCC(NC(=O)CCn2c(=O)oc3ccccc32)C1C` (stereo not given): inactive: > 76.9 µM; for `CCc1nnc(SCc2ccc(C(=O)OC)o2)n1N`: inactive: > 76.9 µM; for `CCCc1cc(=O)[nH]c(SCC(=O)N(C)CC(=O)Nc2ccc(C)cc2)n1`: inactive: > 76.9 µM.

For the compound `Cc1ccc(Nc2cc(C)nn2-c2nc(C)cc(C)n2)cc1`, the Potency is inactive: > 76.9 µM. The same measure for `COc1ccc(C2CC(=O)c3c(C)nc(N4CCN(Cc5ccccc5)CC4)nc3C2)cc1OC` (stereo not given): inactive: > 76.9 µM; for `COCCn1cc(C(=O)NCc2cccs2)c2c3ccccc3n(C)c2c1=O`: inactive: > 76.9 µM.

Take `COCC(C)NC(=O)c1ccc(Cl)c(Cl)c1` (stereo not given): the Potency is inactive: > 76.9 µM. For `Cc1nc(SCC(=O)Nc2ccc(F)cc2)c2oc3ccccc3c2n1`, the Potency is inactive: > 76.9 µM. Consider `CCCNC(=O)Cn1cnc2sc(C(=O)N3CCN(CCC)CC3)c(C)c2c1=O`, for which the Potency was inactive: > 76.9 µM. The same measure for `CC(=N/O)/C(=N\O)c1ccc(C)o1`: inactive: > 76.9 µM; for `C=CCN(C(=O)Nc1ccc(F)cc1)C1CC(=O)N(c2ccc(OC)cc2)C1=O` (stereo not given): inactive: > 76.9 µM. Regarding `Cc1ccc(-c2nnn(CC(=O)N(CC3CCCO3)C(C(=O)NC(C)(C)C)c3ccc(F)cc3)n2)o1` (stereo not given), the Potency was inactive: > 76.9 µM. For the compound `Cc1cc(C)n2nc(SCC(=O)N(C)c3ccccc3)nc2n1`, the Potency is inactive: > 76.9 µM. As to `O=C(Cc1ccccc1)Nc1ccc(NC(=O)C2CC2)nc1`, the Potency is inactive: > 76.9 µM. Turning to `CCN(CCCn1c(=S)[nH]c2ncccc2c1=O)c1ccccc1`, the Potency was inactive: > 76.9 µM. Take `CSc1nc2ccc(NC(=O)C3CCCO3)cc2s1` (stereo not given): the Potency was inactive: > 76.9 µM.

In the case of `CCOC(=O)CNc1nc(C#N)nc(N2CCOCC2)n1`, the Potency was inactive: > 76.9 µM. For the compound `CCOc1ccc2[nH]c(=O)c(CN(CCCO)C(C)=O)cc2c1`, the Potency was inactive: > 76.9 µM. With `CCS(=O)(=O)Nc1cccc(C(=O)CC2(O)C(=O)Nc3ccccc32)c1` (stereo not given), the Potency is inactive: > 76.9 µM.

For the compound `COCCNC(C)C(=O)Nc1ccc(Br)cc1` (stereo not given), the Potency was inactive: > 76.9 µM.

Regarding `COc1cc(CSc2ncn[nH]2)c(OC)cc1CSc1ncn[nH]1`, the Potency is inactive: > 76.9 µM. On to `Cc1cc2cc(C(c3nnnn3CC3CCCO3)N3CCCc4ccccc43)c(=O)[nH]c2cc1C` (stereo not given), for which the Potency is inactive: > 76.9 µM. In the case of `COCCNC(=O)C(c1ccccc1)N(Cc1cccs1)C(=O)Cn1nnc2ccccc21` (stereo not given), the Potency was inactive: > 76.9 µM. For the compound `O=C(NCCN1CCOCC1)c1cc(S(=O)(=O)NCCCN2CCCC2=O)ccc1Cl`, the Potency was inactive: > 76.9 µM. Turning to `CCCOc1nc2c(c(=O)n(C)c(=O)n2C)n1CCC`, the Potency is inactive: > 76.9 µM. For `CCC(c1nnnn1C1CCCCC1)N1CCN(C2CCCC2)CC1` (stereo not given), the Potency is inactive: > 76.9 µM.

For the compound `COc1ccc2cc(C(c3nnnn3Cc3ccccc3)N3CCCCCC3)c(=O)[nH]c2c1` (stereo not given), the Potency was inactive: > 76.9 µM. As to `COc1cc(OC)cc(C(=O)N2CCN(C(=O)COc3ccc4ccccc4c3)CC2)c1`, the Potency was inactive: > 76.9 µM.

As to `Cc1cc(NC(=O)CCC(=O)N(c2cccnc2)C(C(=O)NC2CCCC2)c2ccccc2)no1` (stereo not given), the Potency was inactive: > 76.9 µM. The same measure for `Cc1cc(NC(=O)CCC(=O)N(c2ccccc2)C(C(=O)NC2CCCC2)c2cccs2)no1` (stereo not given): inactive: > 76.9 µM; for `O=C1c2ccccc2CC1Sc1nnc(-c2ccccn2)o1` (stereo not given): inactive: > 76.9 µM; for `CCOC(=O)N1CCN(C(=O)c2cnc(Nc3ccccc3OC)c3ccccc23)CC1`: inactive: > 76.9 µM. Turning to `Cc1cccc2nc(Cn3c(=O)n(CCC(=O)NCc4ccco4)c(=O)c4sccc43)cc(=O)n12`, the Potency is inactive: > 76.9 µM. For the compound `Cc1ccc2oc(NC(=O)N3CCOCC3)cc(=O)c2c1`, the Potency was inactive: > 76.9 µM. Regarding `CCOC(=O)c1ccc2c(c1)C1C=CCC1C(C(=O)O)N2` (stereo not given), the Potency was inactive: > 76.9 µM. The figure for `Cc1cc(C(=O)N2CCN(c3ncccn3)CC2)c2cc(F)ccc2n1` is inactive: > 76.9 µM. The figure for `O=S1(=O)CCN2C=C(Br)C=C(Br)C2=N1` is inactive: > 76.9 µM; for `CC(C)(C)C(=O)OCC1OC(n2cnc(C(N)=O)n2)C(O)C1O` (stereo not given) it is inactive: > 76.9 µM.

As to `CCOc1ccc(N2C(=O)CC(N3CCN(c4ccc(C(=O)c5ccncc5)cc4)CC3)C2=O)cc1` (stereo not given), the Potency was inactive: > 76.9 µM. With `CCOc1ncccc1C(=O)NCC1COc2ccccc2O1` (stereo not given), the Potency was inactive: > 76.9 µM. Take `O=C(NCCc1ccc(Cl)cc1)c1ncn[nH]1`: the Potency is inactive: > 76.9 µM. `CN1CCc2c(sc3c2C(=O)NC(c2ccco2)N3)C1` (stereo not given): the Potency was inactive: > 76.9 µM. Turning to `O=C(Nc1ccc(Cl)cc1C(=O)NCC1CCCO1)c1ccco1` (stereo not given), the Potency was inactive: > 76.9 µM. With `Cc1ccnc(NS(=O)(=O)c2cccc3nsnc23)c1`, the Potency was inactive: > 76.9 µM. The same measure for `CCOC(=O)N1CCN(c2cc3nccnc3cc2F)CC1`: inactive: > 76.9 µM; for `CC(C)CN(C(=O)COC(=O)Cn1cnc2ccccc2c1=O)C1CCS(=O)(=O)C1` (stereo not given): inactive: > 76.9 µM; for `CCOc1ccc(NS(=O)(=O)c2ccc(OCC(=O)N3CCCC3)cc2)cc1`: inactive: > 76.9 µM. For the compound `CCn1c(SCC(=O)NCCc2ccccc2)nnc1-c1ccco1`, the Potency is inactive: > 76.9 µM. As for `COc1ccc(C2C(C(=O)N3CCN(c4ccccc4)CC3)c3ccccc3C(=O)N2C)cc1OC` (stereo not given), the Potency was inactive: > 76.9 µM. The same measure for `Cc1c(-c2ccccc2)[n+](=O)c(-c2ccco2)c(C)n1[O-]`: inactive: > 76.9 µM. As to `COC(=O)c1nn(-c2c(C)n(C)n(-c3ccccc3)c2=O)cc1O`, the Potency is inactive: > 76.9 µM. The same measure for `COCC(=O)Nc1ccc(N(C)C)cc1`: inactive: > 76.9 µM. As to `CCOC(=O)N1CCC(NCCNC(=O)c2ccccc2)CC1`, the Potency is inactive: > 76.9 µM.

With `COCCn1nnnc1CN1CCC(Cc2ccccc2)CC1`, the Potency was inactive: > 76.9 µM. The figure for `CCOC(=O)N1CCN(C(=O)CSCc2nc(-c3ccccc3F)oc2C)CC1` is inactive: > 76.9 µM. Turning to `NS(=O)(=O)c1ccc(CCNC(=O)C2CCCCN2S(=O)(=O)c2ccccc2)cc1` (stereo not given), the Potency was inactive: > 76.9 µM.

As for `CCOc1cccc2cc(-c3nnc(NCc4ccco4)s3)c(=O)oc12`, the Potency is inactive: > 76.9 µM.

In the case of `CN(CCCNC(=O)c1cccc(N2CCCC2=O)c1)c1ccccc1`, the Potency was inactive: > 76.9 µM. As to `Cc1c(NC(=O)NC(C)N2C(=O)C3C4C=CC(C4)C3C2=O)c(=O)n(-c2ccccc2)n1C` (stereo not given), the Potency was inactive: > 76.9 µM. Take `COCc1nnc(NC(=O)CCCOc2ccccc2OC)s1`: the Potency is inactive: > 76.9 µM. As to `COc1ccc(NC(=O)C2CCCN2C(=O)NCc2ccccc2)c(OC)c1` (stereo not given), the Potency was inactive: > 76.9 µM. On to `CCOC(=O)C1C(=O)Nc2nc3ccccc3n2C1C(C)C` (stereo not given), for which the Potency was inactive: > 76.9 µM.

Turning to `CCOc1ccc(NS(=O)(=O)c2ccc(OCC(=O)NCCCOC)cc2)cc1`, the Potency is inactive: > 76.9 µM. Take `Clc1ccccc1-c1nn2c(COc3ccccc3)nnc2s1`: the Potency is inactive: > 76.9 µM.

Regarding `O=C(O)CSc1nc(-c2ccccc2)nc2c1oc1ccccc12`, the Potency was inactive: > 76.9 µM. For `CC1CCCC(NC(=O)CN2CCN(Cc3ccc(Cl)cc3)C2=O)C1C` (stereo not given), the Potency is inactive: > 76.9 µM.

For `Cc1cccc(NC(=O)CCN2C(=O)C3C4C=CC(C4)C3C2=O)n1` (stereo not given), the Potency is inactive: > 76.9 µM. Regarding `O=C(O)c1ccc(OC(F)(F)C(F)C(F)(F)F)cc1` (stereo not given), the Potency is inactive: > 76.9 µM.

As for `COc1ccc(NC(=O)Nc2cc(C)ccc2OC(F)F)c(OC)c1`, the Potency was inactive: > 76.9 µM.

Turning to `N#CCCn1ncn(-c2ccccc2)c1=S`, the Potency is inactive: > 76.9 µM.

For `CCc1cc(=O)oc2cc(OCc3nn[nH]n3)ccc12`, the Potency is inactive: > 76.9 µM. The same measure for `CCOC(=O)C1=C(O)C(Nc2nccs2)(C(F)(F)F)N=C1C` (stereo not given): inactive: > 76.9 µM. Turning to `COC(=O)C1=CN(C(C)C)C=C(C(=O)OC)C1c1cc2c(cc1Br)OCO2`, the Potency was inactive: > 76.9 µM. As for `COc1ccc(CCNC(=O)CCN2C(=O)C3CC=CCC3C2=O)cc1OC` (stereo not given), the Potency is inactive: > 76.9 µM.
